Experimental data taken from PubChem BioAssay AID1476 (National Center for Advancing Translational Sciences (NCATS), 2009).
Screen size: about 200,000 compounds; about 4,500 (2.2%) were called active. Inconclusive means that the source gave no clear call. Such entries were picked first, then a sample of the others. The call rests on the fitted dose curve; in most records, active means well fitted inhibition curve with a large enough effect; inconclusive means small, poorly fitted or top-dose-only effect, or effect the other way; inactive means flat fitted curve, though single readings scatter. Potencies of inconclusive entries are doubtful fits and often do not repeat.

Target: Cruzipain (Trypanosoma cruzi) (UniProt P25779)
Chain of UniProt P25779 (P25779 whole entry, looked up): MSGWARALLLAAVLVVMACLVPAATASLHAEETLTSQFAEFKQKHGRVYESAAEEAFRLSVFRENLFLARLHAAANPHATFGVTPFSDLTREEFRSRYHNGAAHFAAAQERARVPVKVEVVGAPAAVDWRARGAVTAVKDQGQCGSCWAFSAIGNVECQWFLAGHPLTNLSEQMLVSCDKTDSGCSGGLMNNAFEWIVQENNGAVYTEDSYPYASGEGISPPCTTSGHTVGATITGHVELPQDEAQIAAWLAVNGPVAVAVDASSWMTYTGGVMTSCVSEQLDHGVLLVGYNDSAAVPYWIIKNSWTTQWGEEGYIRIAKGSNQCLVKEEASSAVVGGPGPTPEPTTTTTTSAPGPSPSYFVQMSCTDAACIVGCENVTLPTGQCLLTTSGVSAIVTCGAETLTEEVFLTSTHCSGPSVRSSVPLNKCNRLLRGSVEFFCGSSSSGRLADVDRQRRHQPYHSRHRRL
Experiment: qHTS Assay for Promiscuous and Specific Inhibitors of Cruzain (without detergent); further: nearly all actives have a fitted effect of over 40% in size;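 on max response, negative = inhibition: plate controls were enzyme without inhibitor for no effect and buffer without enzyme for full effect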
Conditions: purified cruzain, Z-FR-AMC fluorescence, no detergent
Summary of the method: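 Purified cruzain at 1.5 nM, pre-incubated 15 min with compound at room temperature in 100 mM sodium acetate pH 5.5, 5 mM DTT, 0.00005% Triton X-100. Reaction started with 2 uM Z-FR-AMC; AMC fluorescence increase over 60 s gives rate.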
Potency means the concentration at half of the fitted maximal effect; tags describe the fitted curve by direction and shape.

Row | Compound | Potency | max response, negative = inhibition
1 | O=C(c1cnc(-c2ccc(Cl)cc2)s1)c1ccc(Cl)cc1Cl | inconclusive: 25.1 µM [inhibitor, single point] | –
2 | CC(=O)Nc1ccc(S(=O)(=O)NCCc2csc3nc(-c4cccc(C)c4)nn23)cc1 | – | inactive: 19.3%
3 | CNC(=O)c1ccc(Nc2nnc(-c3ccc(C)c(S(=O)(=O)N4CCOCC4)c3)c3ccccc23)cc1 | inconclusive: 39.8 µM [activator, single point] | –
4 | COc1cc(OC)c(C2N(c3ccc(Cl)c(Cl)c3)C(=O)C3CCCN32)cc1OC (stereo not given) | inconclusive: 31.6 µM [activator, single point] | –
5 | COc1ccc(-c2nc(SCC(=O)Nc3nccs3)c(-c3ccc(Cl)cc3)[nH]2)cc1 | inconclusive: 39.8 µM [inhibitor, single point] | –
6 | COc1ccc(N=C2NN=C(c3ccc4c(c3)OCCO4)CS2)cc1 | active: 25.1 µM | –
7 | COc1ccc(OC)c(CNC(=O)CN2C(=O)CCn3nc(-c4cn(C)c5ccccc45)cc32)c1 | inconclusive: 39.8 µM [activator, single point] | –
8 | CCOc1ccc(CCNC(=O)C2CCCN(S(=O)(=O)c3c(C)n[nH]c3C)C2)cc1OCC (stereo not given) | inconclusive: 25.1 µM [activator, single point] | –
9 | COc1ccc(N2CCN(C(=O)CSc3nnc4c(C)cc5ccccc5n34)CC2)cc1 | inconclusive: 39.8 µM [activator, single point] | –
10 | COc1ccccc1-c1cc(C(=O)N/N=C\c2cnn(C)c2C)c2ccccc2n1 | inconclusive: 31.6 µM [activator, single point] | –
11 | COC(=O)CSc1nnc(NC(=O)/C=C\c2ccc3c(c2)OCO3)s1 | – | inactive: -11.8%
12 | Cc1cccc(N2CCN(C(=O)Cn3c(=O)c4cccn4c4ccc(F)cc43)CC2)c1C | – | inactive: 16.8%
13 | O=C(OCC(=O)N1CCN(C(=O)c2ccco2)CC1)c1cc(-c2ccco2)nc2ccccc12 | inconclusive: 39.8 µM [activator, single point] | –
14 | Cc1ccc(C(C(=O)Nc2ccc3c(c2)OCO3)N(C)C(=O)/C=C\c2ccc3c(c2)OCO3)cc1 (stereo not given) | inconclusive: 39.8 µM [inhibitor, single point] | –
15 | CCOC(=O)Cc1cc(=O)[nH]c(/N=C(/NC(=O)c2ccccc2)Nc2ccccc2C(F)(F)F)n1 | inconclusive: 3.16 µM [inhibitor, single point] | –
16 | Cn1c(CC(=O)NCCO)c(Sc2ccccc2)c2ccccc21 | inconclusive: 39.8 µM [activator, single point] | –
17 | CCOc1cc(NC(=O)C2CC2)c(OCC)cc1NC(=O)c1ccccn1 | inconclusive: 39.8 µM [activator, single point] | –
18 | NCCCCN=C(N)N | inconclusive: 39.8 µM [activator, single point] | –
19 | COc1ccc(-c2ccc3c(N)c(C(=O)Nc4cccc(C)c4)sc3n2)cc1 | inconclusive: 39.8 µM [inhibitor, single point] | –
20 | COc1ccc(NS(=O)(=O)c2cc(NC(=O)CNC(=O)c3ccc(C)s3)ccc2Cl)cc1 | inconclusive: 25.1 µM [inhibitor, single point] | –

Row | Compound | Potency | max response, negative = inhibition
21 | O=C(NC1=NCCS1)c1sc2ccccc2c1Cl | inconclusive: 31.6 µM [inhibitor, partial curve, poor fit] | –
22 | Cc1ccc(NC(=O)CN(C)S(=O)(=O)c2ccc3c(c2)n(C)c(=O)c(=O)n3C)cc1F | – | inactive: -10.7%
23 | CCOC(=O)c1sc2nc3c(SCCC#N)cc(C(=O)c4cc(F)ccc4O)cn3c(=O)c2c1C | inconclusive: 10 µM [inhibitor, partial curve] | –
24 | O=C(Nc1ccc2c(c1)CCC2)c1ccc(F)cc1 | – | inactive: 1.69%
25 | Cc1ccc(-n2c(SCn3nnc4ccccc4c3=O)nnc2-c2cccnc2)c(C)c1 | inconclusive: 25.1 µM [inhibitor, single point] | –
26 | C=CCc1ccccc1OCCSc1nc(-c2cccs2)nc2cc(=O)[nH]n12 | active: 7.94 µM | –
27 | Oc1ccc(C=NCC2COc3ccccc3O2)cc1 (stereo not given) | inconclusive: 39.8 µM [activator, single point] | –
28 | CC(=O)N1CCCc2cc(S(=O)(=O)CCC(=O)N3CCN(c4cccc(C)c4)C(C)C3)ccc21 (stereo not given) | inconclusive: 31.6 µM [activator, single point] | –
29 | Cc1cn2c(=O)cc(COc3cccc(NC(=O)c4ccc(C(C)(C)C)cc4)c3)nc2s1 | inconclusive: 39.8 µM [inhibitor, single point] | –
30 | Fc1ccc(N2CCN(c3nc4ccccc4c4nc(-c5cccnc5)nn34)CC2)cc1 | – | inactive: -5.51%
31 | N#CC1=C(N)NC(SCc2ccc(Br)cc2)=C(C#N)C12CCCCC2 | inconclusive: 20 µM [inhibitor, partial curve, poor fit] | –
32 | Cc1c(Cl)cccc1-c1ccc(CNCCCSc2nnnn2C)o1 | – | inactive: -7.09%
33 | C#CCn1c(S(=O)(=O)Cc2ccccc2Cl)nc(-c2ccccc2)c1-c1ccccc1 | inconclusive: 39.8 µM [inhibitor, single point] | –
34 | CCCCN(C)CCNC(=O)C1CCCN(S(=O)(=O)c2cccc3nsnc23)C1 (stereo not given) | inconclusive: 25.1 µM [inhibitor, partial curve, poor fit] | –
35 | O=C1Nc2ccccc2Oc2cc(Oc3cccc(Cl)c3)ccc21 | inconclusive: 39.8 µM [inhibitor, single point] | –
36 | COc1cc(NC(=S)NCCSc2ccc(C)cc2)cc(OC)c1 | active: 0.251 µM | –
37 | Cc1cc(/C=C2/C(=N)N3C(c4ccccc4)=CSC3=NC2=O)c(C)n1-c1ccccc1 | active: 3.98 µM | –
38 | CCOC(=O)C1=C(CSc2nc(C)cc(C)c2C#N)OC(N)=C(C#N)C1c1ccccc1 (stereo not given) | inconclusive: 39.8 µM [inhibitor, single point] | –
39 | COc1ccc(Cl)cc1NC(=O)CSc1nnc(CN2CCOCC2)n1-c1ccc(Cl)cc1 | inconclusive: 25.1 µM [activator, partial curve] | –
40 | CCOc1ccc(NCC(=O)Nc2ccc(C)cc2C)cc1 | inconclusive: 31.6 µM [inhibitor, single point] | –
